Test results: publication PMC4336329 (PLoS ONE, 2015)
About 2,200 (0.71%) of roughly 310,000 compounds showed an effect of 50% or more. The effect is printed as a negative number. The list shows a part of the results.

These compounds were tested against human ether-à-go-go-related gene (hERG) potassium channel (human, UniProt Q12809) (assay: primary screen, population patch clamp on CHO cells stably expressing hERG).
Chain of human ether-à-go-go-related gene (hERG) potassium channel (Q12809 whole entry, looked up): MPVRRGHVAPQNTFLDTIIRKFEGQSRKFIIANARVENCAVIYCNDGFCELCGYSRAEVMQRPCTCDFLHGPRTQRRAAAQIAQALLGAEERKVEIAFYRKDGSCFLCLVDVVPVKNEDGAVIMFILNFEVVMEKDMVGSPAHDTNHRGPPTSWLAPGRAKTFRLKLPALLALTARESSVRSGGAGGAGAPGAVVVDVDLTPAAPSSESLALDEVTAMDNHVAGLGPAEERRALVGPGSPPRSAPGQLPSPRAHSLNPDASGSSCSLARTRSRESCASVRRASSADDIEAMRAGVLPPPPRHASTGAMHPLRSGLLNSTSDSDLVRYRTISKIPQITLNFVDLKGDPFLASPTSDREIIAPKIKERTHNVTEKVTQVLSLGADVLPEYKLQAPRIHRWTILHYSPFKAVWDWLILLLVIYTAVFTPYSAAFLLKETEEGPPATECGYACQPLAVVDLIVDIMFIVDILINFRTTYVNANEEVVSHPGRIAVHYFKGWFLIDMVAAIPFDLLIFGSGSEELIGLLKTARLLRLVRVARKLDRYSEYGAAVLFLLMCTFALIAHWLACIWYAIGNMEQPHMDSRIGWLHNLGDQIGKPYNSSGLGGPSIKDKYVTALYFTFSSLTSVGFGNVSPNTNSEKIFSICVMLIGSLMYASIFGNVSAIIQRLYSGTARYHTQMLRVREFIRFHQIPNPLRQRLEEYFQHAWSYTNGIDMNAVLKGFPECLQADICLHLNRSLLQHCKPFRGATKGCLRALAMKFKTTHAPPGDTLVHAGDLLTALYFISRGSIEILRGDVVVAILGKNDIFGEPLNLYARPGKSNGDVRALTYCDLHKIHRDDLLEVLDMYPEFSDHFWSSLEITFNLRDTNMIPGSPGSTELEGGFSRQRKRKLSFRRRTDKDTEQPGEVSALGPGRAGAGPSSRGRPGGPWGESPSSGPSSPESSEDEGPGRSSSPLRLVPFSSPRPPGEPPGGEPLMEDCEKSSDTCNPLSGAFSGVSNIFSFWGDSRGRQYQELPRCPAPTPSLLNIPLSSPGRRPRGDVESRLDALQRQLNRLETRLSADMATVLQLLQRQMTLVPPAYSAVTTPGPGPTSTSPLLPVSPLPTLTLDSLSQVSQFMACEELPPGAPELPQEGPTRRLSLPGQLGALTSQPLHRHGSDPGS

| SMILES | hERG current change (%, negative = inhibition) at 1uM [%] |
| --- | --- |
| CC(C)CC(NC(N)=O)C(=O)Nc1ccc(Cl)c(Cl)c1 (stereo not shown) | 8.31 |
| O=c1[nH]c2cc([N+](=O)[O-])c(NCCO)c([N+](=O)[O-])c2[nH]1 | 9.99 |
| COc1ccccc1S(=O)(=O)Cc1ccc(C(=O)NC2CCCCC2)o1 | 1.87 |
| O=C(c1ccc(N2CCOCC2)c([N+](=O)[O-])c1)N1CCN(S(=O)(=O)c2cccs2)CC1 | -1.71 |
| COc1ccc(-c2csc(NC(=O)CN3C(=O)CCC3=O)n2)cc1 | -0.311 |
| COc1ccc2[nH]c(=O)c(CN(Cc3cccs3)C(=S)Nc3cccc(C)c3)cc2c1 | 5.81 |
| N#Cc1cc(Nc2c(N)nc[nH]c2=O)c([N+](=O)[O-])cc1C#N | 9.47 |
| CC(NC(=O)CN1CCC(C(N)=O)CC1)c1ccccc1 (stereo not shown) | 11.7 |
| O=C(NCCNS(=O)(=O)c1ccccc1Cl)c1cc(OCC(F)(F)F)ccc1OCC(F)(F)F | 2.42 |
| C=Cc1ccc(Cn2c(=O)n(CCCOC)c(=O)c3sccc32)cc1 | 2.64 |
| O=c1c2cnn(-c3ccccc3)c2nc(-c2ccco2)n1-c1ccccc1 | 13.5 |
| CC(C)CNc1nc(SCC(=O)Nc2ccccc2)nc(N2CCOCC2)n1 | 4.88 |
| O=c1cc(CNc2cc(C(F)(F)F)cc(C(F)(F)F)c2)nc2sccn12 | 6.39 |
| COC(=O)c1sccc1NC(=O)COc1ccc(F)cc1Cl | 3.54 |
| Cc1ccc(-c2csc(NCCc3nc4cc(Cl)c(Cl)cc4n3CCOCCO)n2)cc1 | 6.51 |
| Cc1c(NS(=O)(=O)c2ccc(F)cc2)c(=O)n(-c2ccccc2)n1C | 10.9 |
| CN(C)c1ccc(NC(=O)CSc2n[nH]c(-c3ccco3)n2)cc1 | 8.47 |
| Cc1ccc2cc(CN(CC3CCCO3)C(=S)Nc3ccccc3)c(=O)[nH]c2c1C (stereo not shown) | 13.3 |
| Cc1cccc(OCC(=O)Nc2ccccc2N2CCCCC2)c1C | 2.33 |
| Cc1[nH]c(C)c(S(=O)(=O)N(C)Cc2ccccc2)c1C(=O)N1CCCC1 | 15.8 |
| CCC(=O)N1CCc2cc(S(=O)(=O)CCC(=O)NCc3ccc4c(c3)OCO4)ccc21 | 8.37 |
| O=C(c1ccccc1)N(NC(=O)C(O)(c1ccccc1)c1ccccc1)c1cccc(F)c1 | 4.53 |

| SMILES | hERG current change (%, negative = inhibition) at 1uM [%] |
| --- | --- |
| Cc1ccc2c(c1)S/C(=C/c1ccc[n+](C)c1)N2CCO.[I-] | 6.01 |
| O=C(Nc1cccc(Cl)c1)C1CCCCC1 | 5.93 |
| O=C(O)C(=O)O.O=S(=O)(c1ccc(F)cc1)N1CCN(CC(O)COc2ccccc2F)CC1 (stereo not shown) | 7.57 |
| O=C(Cc1ccc(F)cc1)Nc1ccc(F)c([N+](=O)[O-])c1 | 4.86 |
| COc1ccc2[nH]c(C)c(CCNc3ccc(C(F)(F)F)cc3[N+](=O)[O-])c2c1 | 4.11 |
| Cc1ccc(S(=O)(=O)C2(C(=O)NCc3ccccc3Cl)CC2)cc1 | 11.6 |
| CN1CCN(S(=O)(=O)c2cccc(C(=O)N(C)Cc3c(F)cccc3Cl)c2)CC1 | 4.69 |
| O=C(O)Cn1c(C(F)(F)F)nc2ccccc21 | 8.46 |
| COc1ccc(CC(=O)NCc2cccc(CNC(=O)Cc3ccc(OC)c(OC)c3)c2)cc1OC | 20.3 |
| Cn1c(N)c(C(=O)COC(=O)CN2C(=O)c3ccccc3C2=O)c(=O)n(C)c1=O | 8.44 |
| CN(CC(=O)Nc1ccc(F)cc1)CC(=O)Nc1ccc(F)c(F)c1F | 0.236 |
| C#CCOCCOCCOCCNc1nc(N2CCN(C(=O)C([C@@H](C)CC)n3cc(C(N)COC(=O)C(F)(F)F)nn3)CC2)nc(N2CCN(C(=O)[C@H](CCCCN)n3cc(C(N)CC(C)C)nn3)CC2)n1.Cl (stereo partly shown) | 8.25 |
| C[N+](C)(C)CCCN(Cc1ccc2c(c1)OCO2)C(=O)NC1CCCCC1.[I-] | 12.5 |
| O=C(Nc1ccc(NS(=O)(=O)c2ccccc2)cc1)c1ccc(Cl)cc1 | -2.54 |
| CCN(CCNC(=O)C1CCN(S(=O)(=O)c2cccc3nsnc23)CC1)c1ccccc1 | 1.2 |
| CNC(=S)NNC(=O)c1cc(C(C)(C)C)nn1Cc1ccc(F)cc1 | 15.1 |
| O=C(C1CCCCN1S(=O)(=O)c1ccccc1)N1CCN(Cc2ccccc2)CC1 (stereo not shown) | 7.17 |
| Cn1c(NCc2ccco2)nc2ccccc21 | -7.71 |
| CC(C)CCNC(=O)NC(=O)CSc1nnc2ccccn12 | 19.2 |
| O=C(CN1C(=O)COc2ccc(S(=O)(=O)N3CCOCC3)cc21)NCc1ccccn1 | 10.8 |
| O=C(Cc1n[nH]c(=O)c2ccccc12)OCC(=O)c1ccc(F)c(F)c1 | 20.2 |
| Cc1cccc(C(=O)NC(=S)N2CCN(c3ccc([N+](=O)[O-])cc3)CC2)c1 | 1.02 |

| SMILES | hERG current change (%, negative = inhibition) at 1uM [%] |
| --- | --- |
| Cn1c(SCC(=O)Nc2ccccc2O)nnc1-c1ccco1 | -10.5 |
| COc1cccc(CC(=O)Nc2ccc3c(c2)OC2(CCCC2)O3)c1 | -2.94 |
| NS(=O)(=O)c1ccc(CCNC(=S)NC2CCCCC2)cc1 | 7.21 |
| CCNc1nc(NCC)n2c(SCC(=O)Nc3ccc(CC)cc3)nnc2n1 | 14.4 |
| CCCn1c(NC(=O)c2ccco2)nc2ccccc21 | 12.2 |
| CN1CCN(C(=S)SCc2nc(N)nc(Nc3ccc(F)cc3)n2)CC1 | 3.05 |
| O=C(NCc1ccc(F)cc1)N1CCc2ccccc2C1 | 10.2 |
| Cc1ccccc1-n1c(SCC(N)=O)nc2sc(-c3ccccc3)cc2c1=O | 11.8 |
| CC1Cc2ccccc2N1CC(=O)N(C)c1c(N)n(Cc2ccccc2)c(=O)[nH]c1=O (stereo not shown) | 2.89 |
| CCCCCCCC(=O)OC(CN1CCCC1=O)C[NH+]1CCCCCC1.[Cl-] (stereo not shown) | 8.17 |
| CC(Oc1ccc(Cl)cc1)C(=O)Nc1nccs1 (stereo not shown) | 5.62 |
| COc1ccc(-c2noc(-c3ccccc3C(=O)NCc3ccco3)n2)cc1OC | -9.11 |
| Cc1cc(=O)c(C(=O)O)cn1Nc1ccc(F)cc1 | 4.96 |
| COc1ccc(OC)c(S(=O)(=O)Nc2ccc3c(c2)N(C(C)=O)CCC3)c1 | 9.1 |
| CC(CN1C(C)CCCC1C)OC(=O)c1ccccc1Br.Cl (stereo not shown) | 4.15 |
| CCCCn1c(SCC(=O)N(C)C2CCS(=O)(=O)C2)nc2cc(S(N)(=O)=O)ccc21 (stereo not shown) | 12.5 |
| Cc1cc(C)c(C#N)c(N2CCC(C(N)=O)CC2)n1 | 2.67 |
| COc1ccc(-c2noc(-c3ccc(Br)o3)n2)cc1 | 13.9 |
| CCCOc1ccc(-c2nc(N3CCN(C)CC3)c3ccccc3n2)cc1 | 4.17 |
| O=C(Nc1ccccc1)O/N=C/c1ccncc1 | 12.9 |
| Cn1c(CN2CCCC2)nc2cc(NC(=O)COc3ccc(Cl)cc3)ccc21 | -13 |
| CCC(C)(C(=O)NC1CCCC1)N(C(=O)c1ccccn1)c1ccc(C)cc1 (stereo not shown) | 14.6 |

| SMILES | hERG current change (%, negative = inhibition) at 1uM [%] |
| --- | --- |
| CCN1CCN(C(=O)CCc2nnc(CCc3ccccc3OC)o2)[C@@H](C)C1=O | 16.7 |
| CN(C)S(=O)(=O)c1ccc(Cl)c(NC(=O)CN2C(=O)NC3(CCCC3)C2=O)c1 | 13.2 |
| Cc1cccc(C)c1N1C(=O)c2cccc([N+](=O)[O-])c2C1=O | 2.99 |
| Cc1ccc(NC(=O)C2=CCN(S(=O)(=O)c3ccc(F)cc3)CC2)cc1 | 3.31 |
| COc1ccc(N(CCC(=O)O)S(=O)(=O)c2ccc(C)cc2C)cc1 | 8.05 |
| Cc1ccc(NC(=O)Cn2nc(-c3ccccc3Cl)ccc2=O)c(Br)c1 | 1.06 |
| Cc1sc(NC(=O)CN2C(=O)NC3(CCCC3)C2=O)nc1-c1ccc(F)cc1 | -11.1 |
| Cc1ccc(CN2C(=O)c3ccccc3NC23CCN(Cc2ccccc2)CC3)cc1 | -9.06 |
| Cc1ccc2c(c1)nnn2C1CCN(C(=O)NCc2ccccc2)CC1 | -44.4 |
| Cc1cccc(CN2CCN(C(C)C(=O)NC(C)c3ccccc3)CC2)c1.O=C(O)C(=O)O (stereo not shown) | 12 |
| CC1CCCN(CCCNC(=O)c2cc3c(Cl)nc4ccccc4c3s2)C1 (stereo not shown) | -15.5 |
| O=C(c1ccc2nc(Cc3cccc(Cl)c3)oc2c1)N1CCC[C@H]1CO | 12.4 |
| O=C(C1CC(=O)N(c2ccc(F)cc2)C1)N1CCN(c2ccc(F)cc2)CC1 (stereo not shown) | -71.1 |
| Cc1ccc(C)c(SCc2noc(C(=O)NC(C)C)c2C(=O)O)c1 | 3.63 |
| Cc1c(C(=O)N2CCCCC2)c(S(=O)(=O)NCc2ccc(Cl)cc2)c(C)n1C | 6.78 |
| CCSc1nnc(NC(=O)C(CC)Oc2ccccc2)s1 (stereo not shown) | 18.2 |
| Nc1ccc(Sc2ccccc2)nc1 | 8.87 |
| CN(Cc1ccccc1)c1nc2c(c(=O)n(C)c(=O)n2C)n1CCSc1ncccn1 | 4.21 |
| CCCOc1ccc(NC(=O)Cc2ccc(S(=O)(=O)N3CCOCC3)s2)cc1OCCC | 21.1 |
